24 molecules from PubChem BioAssay AID1347073 (National Center for Advancing Translational Sciences (NCATS), 2019) can be followed below.

Out of some 45,000 compounds screened, about 200 (0.44%) were called active. Inconclusive results (about 7%) are left out. Calls follow the shape of the dose curve; as a rule, active = well fitted activation curve with a large enough effect; inconclusive = small, poorly fitted or top-dose-only effect; inactive = no such curve, though single readings can be large or run the other way. This is one part of the list.

The assay is described as follows: qHTS of TDP-43 Inhibitors: NCGC Sytravon Library Screen. Also: 0% is about no effect; nearly all actives have a fitted effect of over 55% in size. The settings on record: yeast TDP-43 toxicity rescue, BacTiter-Glo growth, 24 h; at 46.1 µM (top of the series). In short, it runs like this: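 TDP-43-expressing yeast, pregrown in raffinose, seeded at OD600 0.02 in galactose medium with compound for 24 hr at 30 deg C. Growth read by BacTiter-Glo luminescence, so rescue of toxicity appears as activation.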
With `Cc1cccc(NC(=O)Cn2cc(C(=O)c3ccccc3)c3ccccc32)c1`, the growth rescue (activation) was inactive: 9.47%.
With `CC(=O)O[C@@H]1CC[C@]2(C)C3CC[C@]4(C)C(=O)[C@H](O)CC4C3[C@@H](OC(C)=O)C[C@H]2C1` (some centres undefined), the growth rescue (activation) was inactive: -3.16%.
On to `Cc1ccc(/C=C2/Sc3ccc(C(=O)N4CCC5(CC4)OCCO5)cc3NC2=O)cc1`, for which the growth rescue (activation) was inactive: -0.28%.
Regarding `COc1ccc(C(=O)C2CCCN(Cc3ccsc3)C2)cc1OC` (centres undefined), the growth rescue (activation) was inactive: 2.52%.
With `CCCCCCNc1nc(OC)nc(N2CC3CC(C2)c2cccc(=O)n2C3)n1` (centres undefined) the figure was inactive: 19%; with `CC#CP(=O)(OC)C(O)(CF)c1ccccc1` (centres undefined), inactive: 1.38%.
The value for `N/C(=N/[N+](=O)[O-])N1CCN(C(=O)c2ccc(Cl)cc2)CC1` was inactive: -6.5%; that for `CC(C)c1ccc(-n2c(O)c(/C=N/NC(=O)c3ccncc3)c(=O)[nH]c2=O)cc1` was inactive: 21.1%; that for `c1ccc(-c2ccc(-c3n(-c4ccccn4)c4ccccc4[n+]3-c3ccccn3)cc2)cc1` was inactive: 8.76%.
The value for `Cc1cc(/C=C2\C(=O)NC(=O)N(c3ccc(F)cc3)C2=O)c(C)n1-c1cccc(C(=O)O)c1` was inactive: -5.26%; that for `CCn1ccnc1CN1CCCC(C(=O)c2cccc(C(F)(F)F)c2)C1` (centres undefined) was inactive: -11%.
Regarding `Cc1cccc(-n2c(/C=C/c3ccccc3O)nc3ccccc3c2=O)c1`, the growth rescue (activation) was inactive: 2.07%.
With `CN1C(=O)C(=Cc2cn(CC(=O)N3CCCCC3)c3ccccc23)C(=O)N(C)C1=O` the figure was inactive: 10.7%.
The value for `CC(=O)OC1C2CCC1C(N1CCCCC1)CC2` (centres undefined) was inactive: 2.03%; that for `OC(CNCCc1c[nH]c2ccccc12)c1ccccc1` (centres undefined) was inactive: -3.46%; that for `CCOC(=O)C1=CC(=C2C(=O)N(CC)C(=S)N(CC)C2=O)c2ccccc2O1` was inactive: 0.343%.
For the molecule `O=C(Cn1c2c(c(-c3ccccc3Cl)cc1=O)CCC2)N1CCC2(CC1)OCCO2`, the growth rescue (activation) is inactive: 0.179%.
The value for `CC(C)c1ccccc1NC1=NCCCS1` was inactive: 8.57%.
As for `COc1ccc(OC)c(-n2c(O)c(/C=C3\C=Nc4ccccc43)c(=O)[nH]c2=O)c1`, the growth rescue (activation) was inactive: 8.03%.
As for `CCCCc1nc2ccccc2c(=O)n1-c1ccccc1O`, the growth rescue (activation) was inactive: 6.55%.
With `CN1CCN(S(=O)(=O)c2cnc(Cl)c(Br)c2)CC1` the figure was inactive: 15.7%; with `COc1cc(/C=C/C(=O)c2c(O)n(CCc3ccccc3)c(=O)[nH]c2=O)ccc1O`, inactive: -22.9%; with `Cc1cccc(OCCn2cccc2/C=C2/C(=O)NC(=O)N(Cc3ccco3)C2=O)c1`, inactive: 6.28%.
For `Cc1nn(Cc2ccccc2)c(C)c1C(=O)OCC(=O)NC1CCS(=O)(=O)C1` (centres undefined), the growth rescue (activation) is inactive: 11%.
